# Measured values as given in publication PMC9911399, “Two distinct binding modes provide the RNA-binding protein RbFox with extraordinary sequence specificity”.
# Numbering of substitutions follows the chain as printed; changes in the protein carry UniProt numbers. Some of the results follow.
# T1: RBFOX1 RRM RbFoxmut (Fox-RRM*) (Homo sapiens, UniProt Q9NWB1 109-208, R118D;E147R;N151S;E152T)
# T1 sequence: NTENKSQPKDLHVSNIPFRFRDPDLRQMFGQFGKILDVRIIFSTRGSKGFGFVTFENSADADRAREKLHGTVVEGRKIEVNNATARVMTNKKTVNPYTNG
# B1: UGAGUAA (DNA:RNA)
# RNA: GGGAGACCGGAAUUCAGAUUGUCCUGAGUAAUUAAAUCCCGUCGUAGCCACCA
# DNA 1: CAATCTGAATTCCGGTCTCCC
# DNA 2: TGGTGGCTACGACGGGATT
# B2: CAGCCCU (DNA:RNA)
# RNA: GGGAGACCGGAAUUCAGAUUGUCCCAGCCCUUUAAAUCCCGUCGUAGCCACCA
# DNA 1: CAATCTGAATTCCGGTCTCCC
# DNA 2: TGGTGGCTACGACGGGATT
# B3: GUGACCC (DNA:RNA)
# RNA: B2 RNA with C25G, A26U, C28A, U31C
# DNA 1: CAATCTGAATTCCGGTCTCCC
# DNA 2: TGGTGGCTACGACGGGATT
# B4: UGGCAAG (DNA:RNA)
# RNA: B1 RNA with A27G, G28C, U29A, A31G
# DNA 1: CAATCTGAATTCCGGTCTCCC
# DNA 2: TGGTGGCTACGACGGGATT
# B5: GAAAUGU (DNA:RNA)
# RNA: B2 RNA with C25G, G27A, C28A, C29U, C30G
# DNA 1: CAATCTGAATTCCGGTCTCCC
# DNA 2: TGGTGGCTACGACGGGATT
# B6: CGACCCU (DNA:RNA)
# RNA: B2 RNA with A26G, G27A
# DNA 1: CAATCTGAATTCCGGTCTCCC
# DNA 2: TGGTGGCTACGACGGGATT
# B7: GGAGUCC (DNA:RNA)
# RNA: B1 RNA with U25G, A30C, A31C
# DNA 1: CAATCTGAATTCCGGTCTCCC
# DNA 2: TGGTGGCTACGACGGGATT
# B8: CAGUACA (DNA:RNA)
# RNA: B2 RNA with C28U, C29A, U31A
# DNA 1: CAATCTGAATTCCGGTCTCCC
# DNA 2: TGGTGGCTACGACGGGATT
# B9: GGAGGCG (DNA:RNA)
# RNA: B1 RNA with U25G, U29G, A30C, A31G
# DNA 1: CAATCTGAATTCCGGTCTCCC
# DNA 2: TGGTGGCTACGACGGGATT
# B10: ACGUACC (DNA:RNA)
# RNA: B2 RNA with C25A, A26C, C28U, C29A, U31C
# DNA 1: CAATCTGAATTCCGGTCTCCC
# DNA 2: TGGTGGCTACGACGGGATT
# B11: GCCGAGA (DNA:RNA)
# RNA: B1 RNA with U25G, G26C, A27C, U29A, A30G
# DNA 1: CAATCTGAATTCCGGTCTCCC
# DNA 2: TGGTGGCTACGACGGGATT
# B12: AUCUAAG (DNA:RNA)
# RNA: B1 RNA with U25A, G26U, A27C, G28U, U29A, A31G
# DNA 1: CAATCTGAATTCCGGTCTCCC
# DNA 2: TGGTGGCTACGACGGGATT
# B13: GCACCUA (DNA:RNA)
# RNA: B2 RNA with C25G, A26C, G27A, C30U, U31A
# DNA 1: CAATCTGAATTCCGGTCTCCC
# DNA 2: TGGTGGCTACGACGGGATT
# B14: GAUUUCA (DNA:RNA)
# RNA: B2 RNA with C25G, G27U, C28U, C29U, U31A
# DNA 1: CAATCTGAATTCCGGTCTCCC
# DNA 2: TGGTGGCTACGACGGGATT
# B15: AAUAUGG (DNA:RNA)
# RNA: B2 RNA with C25A, G27U, C28A, C29U, C30G, U31G
# DNA 1: CAATCTGAATTCCGGTCTCCC
# DNA 2: TGGTGGCTACGACGGGATT
# B16: GAGCGAA (DNA:RNA)
# RNA: B2 RNA with C25G, C29G, C30A, U31A
# DNA 1: CAATCTGAATTCCGGTCTCCC
# DNA 2: TGGTGGCTACGACGGGATT
# B17: CCGCAGC (DNA:RNA)
# RNA: B2 RNA with A26C, C29A, C30G, U31C
# DNA 1: CAATCTGAATTCCGGTCTCCC
# DNA 2: TGGTGGCTACGACGGGATT
# B18: AGGGUUC (DNA:RNA)
# RNA: B1 RNA with U25A, A27G, A30U, A31C
# DNA 1: CAATCTGAATTCCGGTCTCCC
# DNA 2: TGGTGGCTACGACGGGATT
# B19: CAGGGGU (DNA:RNA)
# RNA: B2 RNA with C28G, C29G, C30G
# DNA 1: CAATCTGAATTCCGGTCTCCC
# DNA 2: TGGTGGCTACGACGGGATT
# B20: UUUCAUU (DNA:RNA)
# RNA: B2 RNA with C25U, A26U, G27U, C29A, C30U
# DNA 1: CAATCTGAATTCCGGTCTCCC
# DNA 2: TGGTGGCTACGACGGGATT
# B21: GACCUUU (DNA:RNA)
# RNA: B2 RNA with C25G, G27C, C29U, C30U
# DNA 1: CAATCTGAATTCCGGTCTCCC
# DNA 2: TGGTGGCTACGACGGGATT
# B22: GCGCGGC (DNA:RNA)
# RNA: B2 RNA with C25G, A26C, C29G, C30G, U31C
# DNA 1: CAATCTGAATTCCGGTCTCCC
# DNA 2: TGGTGGCTACGACGGGATT
# B23: CUCAUCG (DNA:RNA)
# RNA: B2 RNA with A26U, G27C, C28A, C29U, U31G
# DNA 1: CAATCTGAATTCCGGTCTCCC
# DNA 2: TGGTGGCTACGACGGGATT
# B24: UGAGGCU (DNA:RNA)
# RNA: B1 RNA with U29G, A30C, A31U
# DNA 1: CAATCTGAATTCCGGTCTCCC
# DNA 2: TGGTGGCTACGACGGGATT
# B25: CUCGGGU (DNA:RNA)
# RNA: B2 RNA with A26U, G27C, C28G, C29G, C30G
# DNA 1: CAATCTGAATTCCGGTCTCCC
# DNA 2: TGGTGGCTACGACGGGATT
# B26: GAUGAUC (DNA:RNA)
# RNA: B2 RNA with C25G, G27U, C28G, C29A, C30U, U31C
# DNA 1: CAATCTGAATTCCGGTCTCCC
# DNA 2: TGGTGGCTACGACGGGATT
# B27: GCGUUUA (DNA:RNA)
# RNA: B1 RNA with U25G, G26C, A27G, G28U, A30U
# DNA 1: CAATCTGAATTCCGGTCTCCC
# DNA 2: TGGTGGCTACGACGGGATT
# B28: GGCGUCA (DNA:RNA)
# RNA: B1 RNA with U25G, A27C, A30C
# DNA 1: CAATCTGAATTCCGGTCTCCC
# DNA 2: TGGTGGCTACGACGGGATT
# B29: AGCAUGU (DNA:RNA)
# RNA: B1 RNA with U25A, A27C, G28A, A30G, A31U
# DNA 1: CAATCTGAATTCCGGTCTCCC
# DNA 2: TGGTGGCTACGACGGGATT
# B30: GUAGCGG (DNA:RNA)
# RNA: B1 RNA with U25G, G26U, U29C, A30G, A31G
# DNA 1: CAATCTGAATTCCGGTCTCCC
# DNA 2: TGGTGGCTACGACGGGATT
# B31: CCUCGCA (DNA:RNA)
# RNA: B2 RNA with A26C, G27U, C29G, U31A
# DNA 1: CAATCTGAATTCCGGTCTCCC
# DNA 2: TGGTGGCTACGACGGGATT
# Biological target: T1, RBFOX1 RRM RbFoxmut (Fox-RRM*)
# Experiment: EMSA; HiTS-Eq, 1 nM pool, 10 min; buffer printed only for the single-RNA assays: 10 mM Tris pH 7.5, 150 mM NaCl, 3.4 mM EDTA, 0.001% NP-40, 30 C
# Conditions: tags: His6 N-terminal (pET28a); label: 5' 32P
# Outline: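 A pool of RNA with 7 randomized nucleotides, 5′-radiolabelled and with DNA-annealed flanks, was equilibrated at 1 nM for 10 min in 50 µL with purified RbFox RRM, wild type or mutant, across increasing protein concentrations. Free RNA was separated by 8% native PAGE, excised, reverse-transcribed, barcoded by PCR and sequenced. Relative association constants were obtained from read-count changes of each RNA species versus the control reaction and normalised to the cognate motif.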
row,Binder,binding signal
1,B1,0.0902 KA relative to UGCAUGU
2,B2,0.1 KA relative to UGCAUGU
3,B3,0.0824 KA relative to UGCAUGU
4,B4,0.103 KA relative to UGCAUGU
5,B5,0.0843 KA relative to UGCAUGU
6,B6,0.0969 KA relative to UGCAUGU
7,B7,0.135 KA relative to UGCAUGU
8,B8,0.0878 KA relative to UGCAUGU
9,B9,0.12 KA relative to UGCAUGU
10,B10,0.0903 KA relative to UGCAUGU
11,B11,0.127 KA relative to UGCAUGU
12,B12,0.108 KA relative to UGCAUGU
13,B13,0.123 KA relative to UGCAUGU
14,B14,0.0857 KA relative to UGCAUGU
15,B15,0.0878 KA relative to UGCAUGU
16,B16,0.102 KA relative to UGCAUGU

row,Binder,binding signal
1,B17,0.121 KA relative to UGCAUGU
2,B18,0.198 KA relative to UGCAUGU
3,B19,0.113 KA relative to UGCAUGU
4,B20,0.0945 KA relative to UGCAUGU
5,B21,0.0734 KA relative to UGCAUGU
6,B22,0.132 KA relative to UGCAUGU
7,B23,0.122 KA relative to UGCAUGU
8,B24,0.0954 KA relative to UGCAUGU
9,B25,0.0903 KA relative to UGCAUGU
10,B26,0.0682 KA relative to UGCAUGU
11,B27,0.113 KA relative to UGCAUGU
12,B28,0.145 KA relative to UGCAUGU
13,B29,0.713 KA relative to UGCAUGU
14,B30,0.0802 KA relative to UGCAUGU
15,B31,0.122 KA relative to UGCAUGU
